# Data from the BET-seq Pho4 binding data (Le et al. 2018).
# This is one part of the list. Values were computed here from the reads of four pooled replicates and scatter widely.
# Biological target: T1, Pho4 (S. cerevisiae) (UniProt P07270)
# T1 sequence: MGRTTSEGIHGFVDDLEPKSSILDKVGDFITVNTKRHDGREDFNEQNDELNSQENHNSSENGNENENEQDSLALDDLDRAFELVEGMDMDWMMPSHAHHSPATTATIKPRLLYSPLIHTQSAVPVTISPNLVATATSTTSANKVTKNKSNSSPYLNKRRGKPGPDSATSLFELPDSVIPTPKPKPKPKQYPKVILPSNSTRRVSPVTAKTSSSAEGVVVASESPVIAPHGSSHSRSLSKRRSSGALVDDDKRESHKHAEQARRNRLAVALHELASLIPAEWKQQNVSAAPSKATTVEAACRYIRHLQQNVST
# Assay: relative binding free energy (BET-seq); higher = weaker binding
# Details: reference: library average
row,Sequence,relative binding free energy
1,GGCTACACGTGTTGGA,0.2 kcal/mol
2,AGTGTCACGTGTAAGA,0.25 kcal/mol
3,CTGGTCACGTGGAGAG,0.09 kcal/mol
4,CGTCGCACGTGTGGTT,0.07 kcal/mol
5,CTAGGCACGTGCTGGT,-0.23 kcal/mol
6,TAATACACGTGTATTT,-0.03 kcal/mol
7,CGCTTCACGTGGATTG,0.4 kcal/mol
8,TACGTCACGTGTTTAT,0 kcal/mol
9,AAAGGCACGTGGATTT,0.11 kcal/mol
10,GTGTTCACGTGCGATT,0.38 kcal/mol
11,TGGTTCACGTGCGCTT,0.4 kcal/mol
12,AGATTCACGTGATGTA,0.32 kcal/mol
13,AGATGCACGTGGGCAG,-0.15 kcal/mol
14,GCCTTCACGTGTGTGG,0.28 kcal/mol
15,GAGTACACGTGGCTTT,0.09 kcal/mol
16,TTAGGCACGTGAGTAA,0.21 kcal/mol
17,GGTAGCACGTGCGGGG,-0.02 kcal/mol
18,TACGTCACGTGTGGAT,0.2 kcal/mol
19,ATGGACACGTGTTAAG,0.06 kcal/mol
20,ATTGTCACGTGATTCA,0.18 kcal/mol
21,GGTATCACGTGGAACG,0.33 kcal/mol
22,AAGTTCACGTGGGTAG,0.09 kcal/mol
23,TTGTCCACGTGCGGAT,0.19 kcal/mol
24,CTTTGCACGTGTAGCG,0.1 kcal/mol
25,TGGATCACGTGCCGTT,0.05 kcal/mol
26,GCATGCACGTGGTAGG,-0.09 kcal/mol

row,Sequence,relative binding free energy
1,GAAGTCACGTGTGCGG,0.06 kcal/mol
2,AATGTCACGTGTAATT,0.06 kcal/mol
3,GGCTACACGTGTAGTT,0.18 kcal/mol
4,GTGGGCACGTGTCACG,0.05 kcal/mol
5,GATTGCACGTGCTGGA,0.06 kcal/mol
6,AATGTCACGTGTGAGA,0.1 kcal/mol
7,TAGTACACGTGAATGT,0.26 kcal/mol
8,TTAATCACGTGGCGTG,0.09 kcal/mol
9,TGTATCACGTGTGATC,0.15 kcal/mol
10,ATTTACACGTGGCTTA,0.05 kcal/mol
11,TAAAGCACGTGGGATA,-0.16 kcal/mol
12,AGCGGCACGTGTGGGG,-0.04 kcal/mol
13,ATTTACACGTGTAGGA,-0.02 kcal/mol
14,GACGTCACGTGCGTTG,0.14 kcal/mol
15,TGGAACACGTGGTAAA,0.18 kcal/mol
16,GGCTGCACGTGAGATG,0.37 kcal/mol
17,GCTGTCACGTGGTTTA,0.09 kcal/mol
18,ACTTGCACGTGATTGT,0.15 kcal/mol
19,AGGTACACGTGGGTTA,0 kcal/mol
20,CTGGGCACGTGTGGCT,-0.12 kcal/mol
21,GAAGGCACGTGGTAGT,-0.07 kcal/mol
22,TGAGACACGTGTCAGG,-0.06 kcal/mol
23,TTATACACGTGAAGTG,0.31 kcal/mol
24,TCTTGCACGTGGGCTG,-0.16 kcal/mol
25,GTGGACACGTGATAAG,0.18 kcal/mol
26,CAGATCACGTGGAGTT,0.16 kcal/mol

row,Sequence,relative binding free energy
1,GTTGGCACGTGGAGCG,-0.08 kcal/mol
2,TGGGCCACGTGTTGAA,-0.15 kcal/mol
3,TCGTACACGTGTGAGG,0.18 kcal/mol
4,GGTAGCACGTGCAGTT,-0.15 kcal/mol
5,GAACGCACGTGAGTGT,0.21 kcal/mol
6,TGTTTCACGTGTAAGT,0.32 kcal/mol
7,GTGGTCACGTGAGACT,0.29 kcal/mol
8,GAAGTCACGTGGATGT,0.12 kcal/mol
9,CGAGGCACGTGGGGAT,-0.26 kcal/mol
10,AAGTGCACGTGGGTAA,-0.19 kcal/mol
11,TGGTGCACGTGAACTG,0.3 kcal/mol
12,GATGGCACGTGGACTG,-0.09 kcal/mol
13,TGTTTCACGTGCTGGG,0.27 kcal/mol
14,AGGTACACGTGTCGGA,0.09 kcal/mol
15,TTTGTCACGTGTGGAT,0.3 kcal/mol
16,AACTGCACGTGGTAGT,-0.02 kcal/mol
17,ATATTCACGTGGTGTT,0.13 kcal/mol
18,GGATGCACGTGTGTTA,-0.02 kcal/mol
19,GGTTCCACGTGGTTAT,0.11 kcal/mol
20,GTTCTCACGTGTGGCA,0.48 kcal/mol
21,TGATTCACGTGGGCAG,0.16 kcal/mol
22,TGGAACACGTGTAATT,0.19 kcal/mol
23,GGGCGCACGTGAGGGC,0.1 kcal/mol
24,AGGTGCACGTGTGGAC,0.08 kcal/mol
25,ACGGGCACGTGAAGAG,0.28 kcal/mol
26,AATCTCACGTGAGTTG,0.28 kcal/mol

row,Sequence,relative binding free energy
1,GGTGGCACGTGAGATG,0.13 kcal/mol
2,TAGGTCACGTGCTTGA,-0.01 kcal/mol
3,TATGACACGTGTAGTA,0 kcal/mol
4,CTATTCACGTGTTTTT,0.35 kcal/mol
5,AATTTCACGTGTGATA,0.25 kcal/mol
6,TGAGTCACGTGGGCTC,0.03 kcal/mol
7,ATGTTCACGTGTTTTC,0.42 kcal/mol
8,TGTGGCACGTGCGGTC,-0.19 kcal/mol
9,CTAGTCACGTGGAAGG,0.27 kcal/mol
10,TTATGCACGTGGAGAC,0.12 kcal/mol
11,CTAGGCACGTGTGTAG,-0.09 kcal/mol
12,TATGTCACGTGTAGCA,0.2 kcal/mol
13,CGGTACACGTGGCTTG,-0.04 kcal/mol
14,AGGTTCACGTGAAGAT,0.28 kcal/mol
15,TTTGACACGTGTTTTA,0.06 kcal/mol
16,GGTTGCACGTGGGTGC,-0.05 kcal/mol
17,GGGAGCACGTGGTGTC,-0.18 kcal/mol
18,GTCTGCACGTGGCTTG,-0.01 kcal/mol
19,TGCGACACGTGTAAGG,0.12 kcal/mol
20,TGAGACACGTGAATGT,0.24 kcal/mol
21,GGTTTCACGTGTTGTG,0.39 kcal/mol
22,GTTTACACGTGTGTAC,0.07 kcal/mol
23,AAGAGCACGTGGGCTT,-0.2 kcal/mol
24,GTGGACACGTGTGTTA,0.16 kcal/mol
25,TTTTTCACGTGCTTGT,0.27 kcal/mol
26,TAGGACACGTGATATG,0.11 kcal/mol

row,Sequence,relative binding free energy
1,GTGGACACGTGACGTG,0.09 kcal/mol
2,TAGAGCACGTGGAAGG,0.04 kcal/mol
3,GGAGTCACGTGGAATT,0.44 kcal/mol
4,TATAGCACGTGATATT,0.16 kcal/mol
5,TTGGGCACGTGGATGA,0.01 kcal/mol
6,ATGTCCACGTGGATTG,-0.07 kcal/mol
7,GTCGTCACGTGTGCTG,0.07 kcal/mol
8,GGTATCACGTGGCAGC,0.29 kcal/mol
9,TAACTCACGTGGTGTT,0.22 kcal/mol
10,TTCGGCACGTGAGGTT,0.2 kcal/mol
11,CGTGGCACGTGGAAAG,-0.02 kcal/mol
12,TAAGGCACGTGGTGCA,-0.16 kcal/mol
13,TATAACACGTGAATTG,0.17 kcal/mol
14,ACTGCCACGTGTGTTT,0.13 kcal/mol
15,ATGTGCACGTGGTGTA,-0.17 kcal/mol
16,TTTAGCACGTGGCTCG,-0.08 kcal/mol
17,CGGGTCACGTGATGTG,0.19 kcal/mol
18,ATGGGCACGTGTGGCC,-0.12 kcal/mol
19,TTAACCACGTGTAGTT,-0.14 kcal/mol
20,TTGTTCACGTGAATCG,0.33 kcal/mol
21,TTGAGCACGTGGGCGG,-0.2 kcal/mol
22,TTGCACACGTGGGATA,-0.02 kcal/mol
23,ATCATCACGTGTGAGG,0.18 kcal/mol
24,GATTGCACGTGTAATA,0.22 kcal/mol
25,TCAGGCACGTGTTAAT,-0.02 kcal/mol
26,TTAATCACGTGGTTCA,-0.01 kcal/mol

row,Sequence,relative binding free energy
1,GTTGGCACGTGCACGG,-0.03 kcal/mol
2,CGATGCACGTGGTGGG,-0.09 kcal/mol
3,AACGGCACGTGATGTT,0.03 kcal/mol
4,TGAGTCACGTGTATTC,0.18 kcal/mol
5,TGTATCACGTGTTAAT,0.09 kcal/mol
6,AAGAACACGTGGTTGG,-0.13 kcal/mol
7,CGATGCACGTGGTTAT,0 kcal/mol
8,TTGGACACGTGCGTAT,0.03 kcal/mol
9,AGGATCACGTGGCGGG,-0.02 kcal/mol
10,GTTTGCACGTGCAGTA,0.08 kcal/mol
11,AAGTTCACGTGGTGTA,0.18 kcal/mol
12,ATTTTCACGTGGAGGG,0.19 kcal/mol
13,GGGAACACGTGAGGTG,0.34 kcal/mol
14,TAGCACACGTGGGGTA,-0.18 kcal/mol
15,AATGGCACGTGAGGGC,0.09 kcal/mol
16,CTATGCACGTGGATAT,-0.01 kcal/mol
17,AGTTTCACGTGTTTGA,0.21 kcal/mol
18,TTTTGCACGTGTTACT,0.05 kcal/mol
19,GGTAACACGTGACTGG,0.16 kcal/mol
20,ATTGGCACGTGTATCA,-0.06 kcal/mol
21,TAATTCACGTGGTAGT,0.13 kcal/mol
22,GCTTTCACGTGGGCTG,0.26 kcal/mol
23,ACGGGCACGTGGGATT,-0.05 kcal/mol
24,GGGGCCACGTGCGTAA,-0.03 kcal/mol
25,TGTTACACGTGAGGTC,0.28 kcal/mol
26,TGGGGCACGTGACGAT,-0.01 kcal/mol

row,Sequence,relative binding free energy
1,GTTTACACGTGCGGCG,0.13 kcal/mol
2,TGTAACACGTGCTGGA,-0.06 kcal/mol
3,AGTGCCACGTGAAGGG,0.14 kcal/mol
4,GTGTGCACGTGTAAAA,0.13 kcal/mol
5,ATGGGCACGTGCAGAT,-0.13 kcal/mol
6,ATAGTCACGTGTCGTT,0.05 kcal/mol
7,TTTGACACGTGCATGG,0 kcal/mol
8,TTTCACACGTGGAGTT,0.04 kcal/mol
9,TTATGCACGTGTTTAT,0.01 kcal/mol
10,TTAGTCACGTGTTCAG,0.08 kcal/mol
11,TGCGGCACGTGCTTGA,-0.09 kcal/mol
12,TTTCTCACGTGCGAGG,0.29 kcal/mol
13,CGTTACACGTGGATTT,0.15 kcal/mol
14,TCTTACACGTGGGTTG,0.08 kcal/mol
15,GTGGGCACGTGATGGG,0.09 kcal/mol
16,TGTATCACGTGTAGTT,0.12 kcal/mol
17,AATCGCACGTGGAGTT,0.09 kcal/mol
18,GATTACACGTGATGTT,0.13 kcal/mol
19,GGGTACACGTGATGTT,0.2 kcal/mol
20,TAAAACACGTGTGAGG,0.19 kcal/mol
21,GTGGGCACGTGAAGTT,0.27 kcal/mol
22,GAGGGCACGTGTCGTG,-0.01 kcal/mol
23,GTGTGCACGTGGTAAT,0.04 kcal/mol
24,TTTGGCACGTGCTTTG,-0.16 kcal/mol
25,GATGGCACGTGGGTAC,-0.03 kcal/mol
26,TGGGGCACGTGTCGGC,-0.27 kcal/mol

row,Sequence,relative binding free energy
1,GGTAGCACGTGGTAGG,-0.11 kcal/mol
2,TTTTTCACGTGTATGC,0.34 kcal/mol
3,CGTGGCACGTGAAAGT,0 kcal/mol
4,CAGTGCACGTGCGATG,0.05 kcal/mol
5,TGGTGCACGTGTGTCT,-0.06 kcal/mol
6,AGTGCCACGTGTGGGG,-0.07 kcal/mol
7,TGTCACACGTGTTTGC,0.15 kcal/mol
8,CTAACCACGTGGGTGG,-0.1 kcal/mol
9,AATGGCACGTGTGCTG,-0.13 kcal/mol
10,AGGTACACGTGGGGGT,-0.11 kcal/mol
11,TTGCTCACGTGGTCGT,0.25 kcal/mol
12,CAAAGCACGTGGGGTT,-0.29 kcal/mol
13,TGGTACACGTGAAGAG,0.23 kcal/mol
14,TTTAACACGTGGGGCT,-0.04 kcal/mol
15,GGTTGCACGTGGGACG,-0.07 kcal/mol
16,GTTCACACGTGAGTTT,0.31 kcal/mol
17,GAGGACACGTGGGGAT,0.07 kcal/mol
18,GGGGTCACGTGGAGCA,0.12 kcal/mol
19,ATGGTCACGTGCTGTT,-0.02 kcal/mol
20,AGTTGCACGTGATTGG,0.15 kcal/mol
21,CAGATCACGTGTGGAT,0.27 kcal/mol
22,CTGTGCACGTGTGGAC,0.06 kcal/mol
23,GCAGTCACGTGGGGAT,0.04 kcal/mol
24,TAAATCACGTGGTGGT,0.16 kcal/mol
25,ATAAGCACGTGGTGGA,-0.14 kcal/mol
26,ATAAACACGTGTGTTG,-0.07 kcal/mol

row,Sequence,relative binding free energy
1,TGATACACGTGTGATG,0.02 kcal/mol
2,TTCGGCACGTGTGGCG,-0.03 kcal/mol
3,AGGGGCACGTGAATTT,0.18 kcal/mol
4,TTCGGCACGTGACGGT,-0.04 kcal/mol
5,AGGTTCACGTGAAGAA,0.39 kcal/mol
6,TAGGTCACGTGTTACT,0.17 kcal/mol
7,GAGTACACGTGGTTTG,0.09 kcal/mol
8,TTTGCCACGTGATATA,0.13 kcal/mol
9,AAATTCACGTGACTGG,0.42 kcal/mol
10,CGGGGCACGTGTAGGG,-0.06 kcal/mol
11,CAGATCACGTGAGGGT,0.23 kcal/mol
12,TACATCACGTGGTGGA,-0.02 kcal/mol
13,TTAGACACGTGTATGG,0.07 kcal/mol
14,TATTACACGTGTACTT,0.19 kcal/mol
15,TGTTGCACGTGATTGG,0.17 kcal/mol
16,GGGTGCACGTGTCATT,0.06 kcal/mol
17,TACTGCACGTGTTAAT,0.08 kcal/mol
18,GAGGGCACGTGGAGTT,0 kcal/mol
19,TTCGTCACGTGCTGTG,-0.03 kcal/mol
20,TTCGACACGTGAGTTG,0.27 kcal/mol
21,TTATGCACGTGTATGG,-0.03 kcal/mol
22,TGCGGCACGTGGAAAG,0.11 kcal/mol
